Experimental data taken from the RNAGym collection of RNA variant scans (doi:10.1073/pnas.2313332121).
This sample is rich in variants without activity.

B1: TPR 5TU (parent)
chain: GGAUCUUCUCGAUCUAACAAAAAAGACAAAUCUGCCACAAAGCUUGAGAGCAUCUUCGGAUGCAGAGGCGGCAGCCUUCGGUGGCGCGAUAGCGCCAACGUUCUCAACUAUGACACGCAAAACGCGUGCUCCGUUGAAUGGAGUUUAUCAUG

Variants of: B1
Assay: polymerase ribozyme fitness, log enrichment relative to wild type (log ratio); higher = more active; in vitro selection for triplet polymerase activity
Summary of the method: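 Fitness compares each genotype's enrichment to that of the wild type on a logarithmic scale, averaging replicates with inverse-variance weights. The logarithm is base 2. Enrichment came from Illumina sequencing of input and output libraries after one triplicate round of in vitro selection, which included frozen incubation at −7 °C, of PCR-built, transcribed mutant libraries of each subunit of a heterodimeric triplet polymerase ribozyme. Only genotypes with ≥10 input reads and ≥1 read per output were kept.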

| Variant | polymerase ribozyme fitness (log ratio) |
| --- | --- |
| A3G U55A A66U C76U G81U C85U A119U A137G U144G | ≤ -4.2 |
| A3G U55A C79G G92U C95U A98G C99U U104G C108U U127C G128A | ≤ -4.2 |
| A3G U56C C87A G92C | -2.12 |
| A3U A12C A23C A29G U55G A73U C93G | ≤ -4.2 |
| A3U A12C G48C C57U C93A A115C G141A | ≤ -4.2 |
| A3U A16U A49U C103A C114A U146A | ≤ -4.2 |
| A3U A17G A49C C93A U104A A119C C132U G141C U145G | ≤ -4.2 |
| A3U A20C A21U G48A C57U G59A A66C G68C C85U C108U U134C G140U | ≤ -4.2 |
| A3U A20G A49C | ≤ -4.2 |
| A3U A21U G74C U82G C87U A150C | ≤ -4.2 |
| A3U A22C U44G U45G C96U C114G G133A U134A | ≤ -4.2 |
| A3U A22G U45C A49G G80C G92C G126U | ≤ -4.2 |
| A3U A26G A30U G59A G74C C95U | ≤ -4.2 |
| A3U A26U U82G G92A G126A C132G | ≤ -4.2 |
| A3U A28C | ≤ -4.2 |
| A3U A28C A47C C85U C118U | ≤ -4.2 |
| A3U A28U C93U | ≤ -4.2 |
| A3U A28U G50A A89G C95A A97C U139C A142U | ≤ -4.2 |
| A3U A29C G42C U53G U101G A119U | ≤ -4.2 |
| A3U A29C U55A C95U C131U | ≤ -4.2 |
| A3U A30C U31G C79U A115G | ≤ -4.2 |

| Variant | polymerase ribozyme fitness (log ratio) |
| --- | --- |
| A3U A30G C35G A39U G59A A60C C87U U134A | ≤ -4.2 |
| A3U A37G C87U U130C G143A | ≤ -4.2 |
| A3U A37U G42C C57U C95U G136U | ≤ -4.2 |
| A3U A37U G65C C85U C87G | ≤ -4.2 |
| A3U A40G A60C U61A G81C U90G G94A C123A U139A | ≤ -4.2 |
| A3U A41G C51A C99A U111C | ≤ -4.2 |
| A3U A47C G50C G86C A137C G143U | ≤ -4.2 |
| A3U A47U A60G A64G C75U G92U C114U C118G | ≤ -4.2 |
| A3U A49U U55C A91U | ≤ -4.2 |
| A3U A52C C96A A115C | ≤ -4.2 |
| A3U A52C G86U A119U G141U | -3.78 |
| A3U A60G A64C G70A C93U A113U C116G U139G | ≤ -4.2 |
| A3U C5G U7C A30C C36U U55A A60G C75U C87G U101A A119C C123G G143U | ≤ -4.2 |
| A3U C8A C18U A47C A49U C93U U102G A107G G133U | ≤ -4.2 |
| A3U C8G A12U U31G U56G G86C G88A C114U | ≤ -4.2 |
| A3U C8G C14G A40C G62C U78C C103A U127C G133U | ≤ -4.2 |
| A3U C8U A91U C93U | ≤ -4.2 |
| A3U C8U C27A A28C C51A A52C C54A C93U C103G C108G A115C C118A U135A A142U | ≤ -4.2 |
| A3U C8U C96U | -1.89 |
| A3U C10A A47G U77A C87A G141C | ≤ -4.2 |
| A3U C10U U44A A66G C85A G136U | ≤ -4.2 |

| Variant | polymerase ribozyme fitness (log ratio) |
| --- | --- |
| A3U C10U U61A G65A A66C | ≤ -4.2 |
| A3U C14A A22C C27A U77A C87U G133U | ≤ -4.2 |
| A3U C14G C32U C51U U55G C63U A73C A89C G143A | ≤ -4.2 |
| A3U C18A A22U A37G C85U | -3.29 |
| A3U C18U A49C A52C U53A C54G G58C C85U C99G U104C A138U | ≤ -4.2 |
| A3U C18U G42A A91G A107U | ≤ -4.2 |
| A3U C27G G50C C95U A150G | ≤ -4.2 |
| A3U C27U A29G G70C C93G | ≤ -4.2 |
| A3U C35A U77G G83A A119G | ≤ -4.2 |
| A3U C35U C54A C85G | ≤ -4.2 |
| A3U C36U | -2.21 |
| A3U C36U U56G A60C U61G C79U C93U C99U G112C U144A A150C | ≤ -4.2 |
| A3U C43A G84A A106G G140C U148A | ≤ -4.2 |
| A3U C51A U55A C116U C123U A142C | ≤ -4.2 |
| A3U C54G C85G | ≤ -4.2 |
| A3U C54U | -1.57 |
| A3U C57A | -0.997 |
| A3U C57U | 0.223 |
| A3U C69G C93U G140U | ≤ -4.2 |
| A3U C76G A89U C93U G100A A137C G143U U144A | ≤ -4.2 |
| A3U C85U C96U C108G G140C | ≤ -4.2 |

| Variant | polymerase ribozyme fitness (log ratio) |
| --- | --- |
| A3U C87G | -3.94 |
| A3U G11A A21G G84U C131A U134C | ≤ -4.2 |
| A3U G11U C14G C51U A52C C87G C96U G112C | ≤ -4.2 |
| A3U G25C C38U C85A C116A C123U | -2.27 |
| A3U G34A A60C C85U A98G C125U | ≤ -4.2 |
| A3U G42A C85G U102C C103A | ≤ -4.2 |
| A3U G50A A66G U77A C96G U134G A137C | ≤ -4.2 |
| A3U G50C G67A C87U U144C | ≤ -4.2 |
| A3U G70A A89C U139C U144A | ≤ -4.2 |
| A3U G71A C93G | ≤ -4.2 |
| A3U G83A C118G A142C | -3.66 |
| A3U U4A A12U U44A C85A A121G U135G A150C | ≤ -4.2 |
| A3U U4A A16U U31A C85U G88A C125U U146G | ≤ -4.2 |
| A3U U4A C5U C14G A16U A30C G83U G100A | ≤ -4.2 |
| A3U U4G C10A C14G U55G C69U A113G | ≤ -4.2 |
| A3U U6G A24U A29U U55A G74U G88A C93U C103G U134A | ≤ -4.2 |
| A3U U6G C32G G42A A52C U77A G83A C125G G141C G143A | ≤ -4.2 |
| A3U U9A C38U C54U G68U G94A | ≤ -4.2 |
| A3U U15G G71C G100A U135A G141U | ≤ -4.2 |
| A3U U31C C57U G86A | -1.99 |
| A3U U31G C36U C96A | -2.99 |
